# Assay results from PubChem BioAssay AID2675 (National Center for Advancing Translational Sciences (NCATS), 2010).
# The whole screen tested about 280,000 compounds, of which about 100 (0.036%) were called active. The shares of active, inactive and inconclusive entries below differ from those in the screen. Calls come from the whole dose curve; as a rule, active = well fitted inhibition curve with a large enough effect in the signal ratio, with a control signal flat (not every such curve was filed as active); inconclusive = small, poorly fitted or top-dose-only effect, or effect the other way, or a change in a side signal; inactive = no such curve, though single readings can be large or run the other way; the % refers to the signal ratio. A potency beside an inconclusive call is a rough fit, not a confirmed value. A note “side channel” means that the fit belongs to a control or component signal, not to the main read-out.
# Molecular target: Muscleblind-like protein 1 (Homo sapiens) (UniProt Q9NR56)
# UniProt Q9NR56, sequence (Q9NR56 whole entry, looked up): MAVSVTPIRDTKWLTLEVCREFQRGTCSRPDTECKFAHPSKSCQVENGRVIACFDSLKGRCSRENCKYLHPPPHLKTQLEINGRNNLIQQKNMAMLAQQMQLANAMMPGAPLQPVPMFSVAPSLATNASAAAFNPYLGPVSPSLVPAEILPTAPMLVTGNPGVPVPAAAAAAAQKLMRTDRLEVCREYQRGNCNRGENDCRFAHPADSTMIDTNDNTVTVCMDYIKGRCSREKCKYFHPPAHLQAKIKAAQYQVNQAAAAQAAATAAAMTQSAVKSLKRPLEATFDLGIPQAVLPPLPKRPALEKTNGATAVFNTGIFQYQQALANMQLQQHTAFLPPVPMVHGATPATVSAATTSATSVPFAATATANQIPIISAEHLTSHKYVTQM
# Assay: qHTS Assay for Inhibitors of MBNL1-poly(CUG) RNA binding
# Settings: TR-FRET MBNL1-His/biotin-(CUG)12 binding, 665/545 ratio; series mostly up to 57.5 µM
# Method in brief: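 TR-FRET between His-tagged MBNL1 and biotin-(CUG)12 RNA, detected with Tb anti-His antibody (0.055 ng/ul) and streptavidin-XL665 (5 nM), 60 min at room temperature. Compounds titrated 92 nM to 58 uM; 665/545 nm ratio normalized to buffer and complex controls.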
# Potency is the fitted concentration of half-maximal effect; tags give direction and shape of the fitted curve or compound fluorescence and quenching.
row,SMILES,Potency
1,O=C(Nc1cccnc1)c1ccc2c(c1)C(=O)N(CC1CCCO1)C2=O (stereo not given),"inconclusive: 7.08 µM [quencher, side channel, partial curve]"
2,Cc1cccc(Cn2c(SCC(=O)Nc3ccccc3)nc3c2c(=O)[nH]c(=O)n3C)c1,"inconclusive: 7.08 µM [quencher, side channel, single point]"
3,N#C/C(=C\c1ccc(N2CCOCC2)c([N+](=O)[O-])c1)c1nc2ccccc2[nH]1,"inconclusive: 6.31 µM [quencher, side channel, full curve, poor fit]"
4,CC1=NN(C(N)=S)C(=O)C1N=Nc1ccccc1C(=O)O (stereo not given),"inconclusive: 28.2 µM [quencher, side channel, partial curve]"
5,O=[N+]([O-])c1cccc(CN(CCO)Cc2ccccc2)c1,"inconclusive: 17.8 µM [quencher, side channel, partial curve]"
6,O=[N+]([O-])c1cc2c(cc1[N+](=O)[O-])OCCOCCOCCOCCO2,"inconclusive: 14.1 µM [quencher, side channel, partial curve]"
7,O=[N+]([O-])c1ccc(Nc2ccc(F)cc2)cc1,"inconclusive: 12.6 µM [quencher, side channel, partial curve]"
8,COc1ccc2cc(C(C)=O)c(=O)oc2c1,"inconclusive: 11.2 µM [quencher, side channel, partial curve]"
9,O=C(CCc1ccccc1)Nc1cccc([N+](=O)[O-])c1,"inconclusive: 12.6 µM [quencher, side channel, partial curve]"
10,Cc1nnc(N2C(=O)c3oc4ccccc4c(=O)c3C2c2ccco2)s1 (stereo not given),"inconclusive: 3.16 µM [quencher, side channel, full curve]"
11,NC(=O)COC(=O)/C=C/c1ccccc1[N+](=O)[O-],"inconclusive: 15.8 µM [quencher, side channel, partial curve]"
12,COC(C(=O)Nc1cccc([N+](=O)[O-])c1)c1ccccc1 (stereo not given),"inconclusive: 15.8 µM [quencher, side channel, partial curve]"
13,O=C(OCC(=O)N1CCN(c2ccccc2)CC1)c1cc(Cl)ccc1[N+](=O)[O-],"inconclusive: 35.5 µM [quencher, side channel, single point]"
14,O=C(O)CCc1ccc(-c2ccccc2)o1,inactive
15,CC(=O)C1=C(C)OC(N)=C(C#N)C1c1cccc([N+](=O)[O-])c1 (stereo not given),"inconclusive: 25.1 µM [quencher, side channel, partial curve]"
16,CCOP(=O)(c1ccccc1)c1nc(-c2ccccc2Cl)oc1N1CCCCC1 (stereo not given),inactive
17,COCCNC(=O)Cn1cnc([N+](=O)[O-])n1,"inconclusive: 28.2 µM [quencher, side channel, single point]"
18,CCOC(=O)C(NC(=O)CC)C(O)c1cccc([N+](=O)[O-])c1 (stereo not given),"inconclusive: 25.1 µM [quencher, side channel, single point]"
19,O=C(NCCCn1ccnc1)c1nc(Cn2ccc([N+](=O)[O-])n2)no1,"inconclusive: 35.5 µM [quencher, side channel, single point]"
20,CCCC1CCc2c(sc(NC(=O)c3cccs3)c2C(N)=O)C1 (stereo not given),inactive

row,SMILES,Potency
1,CCN(CC)C(=O)Cn1c(=O)n(CCCCCC(=O)Nc2ccccc2)c(=O)c2sccc21,"inconclusive: 11.2 µM [fluorescent, side channel, partial curve, poor fit]"
2,Cc1cccc(-n2ncc3c(NCc4cccnc4)ncnc32)c1,inactive
3,O=C1c2cccc3cccc(c23)C(=O)N1Cc1cccnc1,"inconclusive: 3.55 µM [quencher, side channel, full curve, poor fit]"
4,O=C1CCCc2ccccc2N1Cc1c(Cl)cccc1Cl,inactive
5,COc1ccc(NC(=O)c2ccc([N+](=O)[O-])cc2[N+](=O)[O-])c(OC)c1,"inconclusive: 3.16 µM [quencher, side channel, full curve]"
6,C(=C\c1ccccc1)/C=N/n1cnnc1,"inconclusive: 14.1 µM [quencher, side channel, partial curve]"
7,COc1ccc(-n2nc(C(=O)NCC(=O)N3CCCC(C)C3)c3ccccc3c2=O)cc1 (stereo not given),"inconclusive: 20 µM [quencher, side channel, partial curve]"
8,O=C(CC(n1cncn1)C(Cl)(Cl)Cl)c1ccc([N+](=O)[O-])cc1 (stereo not given),"inconclusive: 10 µM [quencher, side channel, partial curve]"
9,CCC(=O)Nc1c(C#N)c2nc3ccccc3nc2n1-c1ccccc1C,inactive
10,COc1cc(C2C(C#N)=C(C)NC(C)=C2C#N)cc(OC)c1OC,inactive
11,COc1ccc(C2C(C#N)=C(N)OC3=C2C(=O)CCC3)cc1Cn1nc(C)c([N+](=O)[O-])c1C (stereo not given),"inconclusive: 7.08 µM [quencher, side channel, single point]"
12,CCCc1cc2c(c(NC(C)=O)n1)c(=O)oc1ccccc12,"inconclusive: 39.8 µM [quencher, side channel, single point]"
13,CN(C)/C=C/C(=O)c1ccc(S(=O)c2ccccc2)cc1 (stereo not given),"inconclusive: 35.5 µM [quencher, side channel, single point]"
14,COc1cc2c(cc1NC(=O)c1ccc(C)c([N+](=O)[O-])c1)oc1ccccc12,"inconclusive: 1.58 µM [fluorescent, side channel, partial curve]"
15,CC1=NN(Cc2ccccc2)C(=O)C1C(c1ccncc1)C(C#N)C#N (stereo not given),"inconclusive: 28.2 µM [quencher, side channel, partial curve]"
16,COc1ccc(-c2csc(NS(=O)(=O)c3ccc([N+](=O)[O-])cc3)n2)cc1,"inconclusive: 11.2 µM [quencher, side channel, partial curve]"
17,CSc1nc(C)c2c(n1)N(c1ccc(F)cc1)CC2,"inconclusive: 3.98 µM [fluorescent, side channel, single point]"
18,CCOC(=O)C1=C(C)NC(C)=C(C(=O)OCC)C1C(=O)O,inactive
19,CN(C)C(=O)/C(=C\c1ccc(-c2cccc([N+](=O)[O-])c2)o1)NC(=O)c1ccccc1,"inconclusive: 15.8 µM [quencher, side channel, partial curve]"
20,CCN1C(=O)c2ccc(C(=O)NCc3ccco3)cc2C1=O,"inconclusive: 17.8 µM [quencher, side channel, partial curve]"

row,SMILES,Potency
1,CN1C(=S)N(c2cccnc2)C(=O)/C1=C\c1ccc(C(C)(C)C)cc1,inactive
2,N=C1S/C(=C\c2ccco2)C(=O)N1c1nccs1,"inconclusive: 14.1 µM [quencher, partial curve]"
3,Cc1cccc(N=C2NC(=O)S/C2=C\c2ccco2)c1,"inconclusive: 12.6 µM [quencher, side channel, partial curve]"
4,O=C(c1ccco1)N1CCN(S(=O)(=O)c2ccccc2[N+](=O)[O-])CC1,inactive
5,O=[N+]([O-])c1ccc(N2CCN(S(=O)(=O)c3ccccc3)CC2)cc1NCCN1CCOCC1,"inconclusive: 20 µM [quencher, partial curve]"
6,COc1ccc(Br)cc1/C=c1\sc2nc(-c3ccco3)nn2c1=O,inactive
7,O=C(NCc1ccco1)c1ccc(N2CCOCC2)c([N+](=O)[O-])c1,"inconclusive: 15.8 µM [quencher, side channel, partial curve]"
8,CN1CCN(Cc2c(O)ccc3c(-c4ccccc4)cc(=O)oc23)CC1,"inconclusive: 15.8 µM [quencher, side channel, partial curve]"
9,Nc1ncnc(NNC(=O)CNC(=O)c2c(F)cccc2Cl)c1[N+](=O)[O-],"inconclusive: 28.2 µM [quencher, side channel, partial curve]"
10,Fc1ccc(/C=N/Nc2nccnc2Cl)cc1,inactive
11,CCCC(C)NC(=O)COC(=O)c1ccc2c(c1)C(=O)N(Cc1ccco1)C2=O (stereo not given),"inconclusive: 4.47 µM [quencher, side channel, partial curve]"
12,COc1ccc(OC)c(NC(=O)c2ccc3c(=O)n(CCc4ccccc4)c(=S)[nH]c3c2)c1,"inconclusive: 0.447 µM [fluorescent, side channel, partial curve]"
13,CCOC(=O)N/N=C\c1ccc([N+](=O)[O-])o1,"inconclusive: 11.2 µM [quencher, side channel, partial curve]"
14,CCOc1c2ccc(C(=O)NCc3ccc(OC(F)(F)F)cc3)cc2nn1CC,inactive
15,N#Cc1ccc(NC(=O)c2sc3cc(C(F)(F)F)cnc3c2-c2cccs2)cc1,"inconclusive: 31.6 µM [fluorescent, side channel, partial curve]"
16,CC(=O)c1cccc(NC(=O)C2=CC(c3cccs3)=NS(=O)(=O)N2C)c1,"inconclusive: 17.8 µM [quencher, partial curve]"
17,CCOC(=O)C1CCN(C2=C(NS(=O)(=O)c3ccc(Cl)cc3)C(=O)c3ccccc3C2=O)CC1,"inconclusive: 3.16 µM [quencher, side channel, partial curve]"
18,Cc1ccc(S(=O)(=O)Nc2cnn(-c3ccccc3)c(=O)c2Cl)cc1,inactive
19,Cc1ccc(C)c(NC(=O)N2CCc3ccccc3C2)c1,inactive
20,CN1C(=O)S/C(=C/c2cccn2-c2cccc(C(=O)O)c2)C1=O,"inconclusive: 28.2 µM [quencher, side channel, partial curve]"
